According to the supplement of paper PMC4604168 (melanoma cell lines):
Some of the results follow. Most values come without repeats; read them as rough.

These compounds were tested on WM3619 (assay: cell count relative to DMSO control; melanoma cells; higher = more viable cells). Settings: library dose: low library concentration; 72 h.
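Note: cell number obtained by counting DAPI-stained nuclei in high-throughput microscope images with image analysis software, screen run in 1,536-well plates.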

Compound	cell count [%]
O=C(O)[C@@H]1[O][Sb](=[O])([O][Sb]2(=[O])[O][C@H]([C@H](O)CO)[C@H](O)[C@H](C(=O)O)[O]2)[O][C@H]([C@H](O)CO)[C@@H]1O (some centres not stated) [stibogluconate] + CCc1ccc(CCOc2ccc(CC3SC(=O)NC3=O)cc2)nc1 [pioglitazone] (first compound 2 µM, partner dose 2 µM)	98.2
O=C(Nc1cc(C(F)(F)F)cc(C(F)(F)F)c1)c1cc(Cl)ccc1O + O=S(=O)(c1ccccc1)N(CC(F)(F)F)c1ccc(C(O)(C(F)(F)F)C(F)(F)F)cc1 [T0901317] (first compound 0.016 µM, partner dose 1.4 µM)	121
O=C(Nc1cc(C(F)(F)F)cc(C(F)(F)F)c1)c1cc(Cl)ccc1O + CCCCCCCCc1ccc(CCC(N)(CO)CO)cc1 [fingolimod] (first compound 0.016 µM, partner dose 2 µM)	100
O=C(Nc1cc(C(F)(F)F)cc(C(F)(F)F)c1)c1cc(Cl)ccc1O + O=C(Nc1cccc(Cl)c1)Nc1ncc(CCNc2ncnc3ccsc23)s1 [SNS314] (first compound 0.016 µM, partner dose 0.0008 µM)	89.4
O=C(Nc1ccccc1)c1cc([N+](=O)[O-])ccc1Cl + c1cc(-c2cnn3cc(-c4ccc(OCCN5CCCCC5)cc4)cnc23)ccn1 [Dorsomorphin] (first compound 2 µM, partner dose 0.4 µM)	79
O=C(O)[C@@H]1[O][Sb](=[O])([O][Sb]2(=[O])[O][C@H]([C@H](O)CO)[C@H](O)[C@H](C(=O)O)[O]2)[O][C@H]([C@H](O)CO)[C@@H]1O (some centres not stated) [stibogluconate] + Cn1nnc2c(C(N)=O)ncn2c1=O [temozolomide] (first compound 2 µM, partner dose 2 µM)	94.3
Cc1cc(N2CCOCC2)cc2[nH]c(-c3c(NC[C@@H](O)c4cccc(Cl)c4)cc[nH]c3=O)nc12 + COc1ccc(COc2ccc(Cc3cnc(N)nc3N)cc2OC)cc1 [GW2580] (first compound 0.2 µM, partner dose 1 µM)	99.5
